In publication PMC3335097 (2012):
Results are given in words; binding and its absence hold for the method and conditions named. Some binding calls cover weakened binding; strength is not graded here. One block for each binder: values may come before it.

Key:
[1] = target: T1, p15 fragment of spin labeled cleaved mouse Bid (cBidR1), MTSSL on C126 (mouse), P70444; assay: DEER (pulse EPR); spin labels on C30 (p7) and C126 (p15); after removal of 2% OG by extensive dialysis; protein 180 µM; recorded at 50 K; both purified; conditions: remark: other sources report otherwise
T1 chain: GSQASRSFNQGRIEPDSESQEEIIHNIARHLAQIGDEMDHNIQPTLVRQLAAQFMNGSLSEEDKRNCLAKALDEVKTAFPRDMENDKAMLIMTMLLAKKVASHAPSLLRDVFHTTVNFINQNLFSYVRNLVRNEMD

[2] = target: T2, p15 fragment of Caspase-8-cleaved mouse Bid (tBid) (mouse), P70444; assay: SEC; Superdex 75 column, SMART system; soluble protein, no detergent, with DTT; both purified; conditions: remark: other sources report otherwise
T2 chain: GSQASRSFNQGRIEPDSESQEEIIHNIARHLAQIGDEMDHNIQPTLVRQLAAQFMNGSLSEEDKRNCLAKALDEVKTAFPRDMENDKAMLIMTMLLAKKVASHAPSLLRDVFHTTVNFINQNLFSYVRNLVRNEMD

[3] = target: T2, p15 fragment of Caspase-8-cleaved mouse …; assay: SEC; Superdex 75 column, SMART system; soluble proteins, no detergent, without DTT; both purified; conditions: remark: other sources report otherwise
[4] = target: p15 fragment of Caspase-8-cleaved mouse Bid (tBid) (mouse) (UniProt P70444); assay: as above
[5] = target: p15 fragment of Caspase-8-cleaved mouse Bid (tBid) (mouse) (UniProt P70444); assay: SEC; Superdex 75 column; no detergent, after addition of DTT or after spin labeling; data not shown; both purified
[6] = target: p15 fragment of spin labeled cleaved mouse Bid (cBidR1), MTSSL on C126 (mouse) (UniProt P70444); assay: as above
[7] = target: p15 fragment of spin labeled cleaved mouse Bid (cBidR1), MTSSL on C126 (mouse) (UniProt P70444); assay: DEER (pulse EPR); spin labels on C30 (p7) and C126 (p15); with 0.5% DDM; protein 40 µM; recorded at 50 K; both purified
[8] = target: p15 fragment of spin labeled cleaved mouse Bid (cBidR1), MTSSL on C126 (mouse) (UniProt P70444); assay: DEER (pulse EPR); spin labels on C30 (p7) and C126 (p15); after removal of 2% OG by extensive dialysis; protein 180 µM; recorded at 50 K; both purified
[9] = target: p7 fragment of spin labeled cleaved mouse Bid (cBidR1), MTSSL on C30 (mouse) (UniProt P70444); assay: as above
[10] = target: p15 fragment of spin labeled cleaved mouse Bid (cBidR1), MTSSL on C126 (mouse) (UniProt P70444); assay: intrinsic tryptophan and tyrosine fluorescence spectra; excitation at 280 nm; protein 0.5 µM; without detergent, with 2% OG, and after removal of the detergent by extensive dialysis; both purified
[11] = target: p15 fragment of spin labeled cleaved mouse Bid (cBidR1), MTSSL on C126 (mouse) (UniProt P70444); assay: cw EPR and SDS PAGE of supernatant and washed pellet after incubation with liposomes; cBidR1 (110 µM) incubated for 3 h at 37°C with ECL or MOML liposomes (20 mg/ml lipids), then centrifuged; both purified

B3: p7 fragment of Caspase-8-cleaved mouse Bid (protein)
chain: MDSEVSNGSGLGAEHITDLLVFGFLQSSGCTRQELEVLGRELPVQAYWEADLEDELQTD
binding [4]: binds
binding [5]: binds

B4: p7 fragment of spin labeled cleaved mouse Bid (cBidR1), MTSSL on C30 (domain or fragment, UniProt P70444 1-59)
chain: MDSEVSNGSGLGAEHITDLLVFGFLQSSGCTRQELEVLGRELPVQAYWEADLEDELQTD
modifications: MTSSL spin label (R1) on C30
binding [6]: binds
binding [7]: binds
binding [8]: binds
binding [9]: no binding
binding [10]: binds
binding [11]: binds

Continued, values first:

binding [1]: no binding
B1: p15 fragment of spin labeled cleaved mouse Bid (cBidR1), MTSSL on C126, P70444 60-195 (domain or fragment)
chain: GSQASRSFNQGRIEPDSESQEEIIHNIARHLAQIGDEMDHNIQPTLVRQLAAQFMNGSLSEEDKRNCLAKALDEVKTAFPRDMENDKAMLIMTMLLAKKVASHAPSLLRDVFHTTVNFINQNLFSYVRNLVRNEMD
modifications: here or on the partner: MTSSL spin label (R1) on C126; MTSSL spin label (R1) on C126

binding [2]: no binding
binding [3]: no binding
B2: p15 fragment of Caspase-8-cleaved mouse Bid (tBid), P70444 60-195 (domain or fragment)
chain: GSQASRSFNQGRIEPDSESQEEIIHNIARHLAQIGDEMDHNIQPTLVRQLAAQFMNGSLSEEDKRNCLAKALDEVKTAFPRDMENDKAMLIMTMLLAKKVASHAPSLLRDVFHTTVNFINQNLFSYVRNLVRNEMD
